PubChem BioAssay AID2546 (National Center for Advancing Translational Sciences (NCATS), 2010)
Among all 310,000 compounds or so, about 11,000 (3.5%) were called active. This list was built around the results that the source calls inconclusive (neither active nor inactive); the mix of calls is not that of the screen. Calls follow the shape of the dose curve; as a rule, active = well fitted inhibition curve with a large enough effect; inconclusive = small, poorly fitted or top-dose-only effect, or effect the other way; inactive = flat fitted curve, though single readings scatter. No potency is given beside an inconclusive call; the fits are too rough.

assay: VP16 counterscreen qHTS for inhibitors of ROR gamma transcriptional activity; settings: Drosophila S2 Gal4-VP16 UAS-luciferase, luminescence, 20 h; series mostly up to 53.6 µM;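 also: Gal4-VP16 expression switched on by copper sulfate through the metallothionein promoter; nearly all actives have a fitted effect of over 50% in size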
Potency is read from the fitted curve at half-maximal effect; tags tell the direction and shape of the fitted curve.

SMILES	Potency
CCCCN1C(=S)NC[C@@H]1c1ccccc1	active: 12.6 µM
COc1ccc(C(=O)NCCc2nnc3ccc(SCC(=O)NCc4ccccc4)nn23)cc1	inactive
CCCCNC(=S)NC(=O)c1ccccc1Br	active: 11.2 µM
c1ccc2c(COn3nnc4ccccc43)cccc2c1	inconclusive [inhibitor, full curve, poor fit]
COCc1cc(C)[nH]c(=O)c1C(=O)NC12CC3CC(CC(C3)C1)C2	inconclusive [inhibitor, single point]
Cc1nonc1CN(C)C(=O)c1cc(COc2ccc(F)cc2Cl)on1	inconclusive [activator, single point]
Cc1nn(-c2ccccc2)c(N2CCCC2)c1/C=N/NC(=O)c1ccccc1O	active: 10 µM
Cc1cc(C)cc(Nc2cc(=O)n(C3CCCCC3)c(=O)[nH]2)c1	inconclusive [inhibitor, single point]
CCN(CC)CCCNc1nc2cc(OC)c(OC)cc2c2nc(-c3ccccc3)nn12	inconclusive [inhibitor, single point]
Cn1c(SCC(=O)N2c3ccccc3Sc3ccccc32)nc2ccccc21	inconclusive [inhibitor, single point]
Cc1ccc2nc(C)cc(Nc3ccc4c(c3)OCCO4)c2c1	inconclusive [inhibitor, single point]
Cc1ccc(C(=O)NC(=C(Cl)Cl)S(=O)(=O)c2ccc(C)cc2)cc1	inconclusive [inhibitor, single point]
O=C(Nc1nnc(-c2ccncc2)o1)c1ccccc1F	active: 10 µM
CC(C)C[C@H](NC(=O)c1[nH]cnc1C(=O)N[C@H](C)c1ccccc1)C(=O)OC(C)(C)C	active: 5.62 µM
CCOC(=O)c1ccccc1NC(=O)c1c(F)c(F)c(F)c(F)c1F	inactive
O=C(N/N=C/c1cc(Cl)cc([N+](=O)[O-])c1O)NC12CC3CC(CC(C3)C1)C2	inconclusive [inhibitor, single point]
CCC1CSC(Nc2ccc(C(=O)/C=C/c3ccc(Oc4ccccc4)cc3)cc2)=N1 (configuration not stated)	inconclusive [inhibitor, single point]
Cc1ccc(NC(=S)N=Nc2c(O)n(C)c3ccc(S(=O)(=O)N4CCOCC4)cc23)cc1C	active: 3.16 µM
Cc1cnc(C(=O)OCc2ccc(Br)cc2F)cn1	inconclusive [inhibitor, partial curve, poor fit]
O=C(Nc1ccccc1Cl)C1CCCN(S(=O)(=O)c2cccc3cccnc23)C1 (configuration not stated)	inconclusive [inhibitor, single point]
NNC(=O)CN1CCN(c2ncc(C(F)(F)F)cc2Cl)CC1	inactive
CC1=CC2=NC(=O)/C(=C/c3coc4ccc(Cl)cc4c3=O)C(=N)N2O1	inconclusive [inhibitor, single point]
CCOc1ccc(CN2CCN(Cc3nc(C(C)C)cs3)CC2CCO)cc1 (configuration not stated)	inactive
COc1ccc(CCN2C(=O)C(C)=C(C)C2=O)cc1OC	inconclusive [activator, single point]

SMILES	Potency
Cc1ccc(/C=N/NC(=O)CSc2nc3ccccc3c(=O)n2-c2ccccc2C)s1	inconclusive [inhibitor, single point]
COC(C(=O)N/N=C(\C)c1ccc(O)cc1)c1ccccc1 (configuration not stated)	inconclusive [activator, single point]
Cc1ccc(NC(=O)CN(Cc2ccco2)Cc2ccccc2O)cc1C	inactive
CC1CCc2c(nc3sc4c(c3c2N)CCCC4)C1 (configuration not stated)	inconclusive [inhibitor, single point]
COC(=O)c1nn(C23CC4CC(CC(C4)C2)C3)c2c1C(=O)N(c1ccc(Br)cc1)C2=O	active: 5.62 µM
Cc1nc(N)nc(Nc2ccc(Cl)cc2)c1Br	inactive
CS(=O)(=O)N1CCc2cc(-c3csc(NC(=O)Cc4cccs4)n3)ccc21	inconclusive [inhibitor, single point]
CC(C)C1Nc2c(O)cc(Cl)c([N+](=O)[O-])c2C2C=CCC21 (configuration not stated)	inconclusive [inhibitor, single point]
CC(C)[C@@H](CO)NC(=O)c1ccc2c3n(nc2c1)-c1ccccc1CO3	inconclusive [inhibitor, partial curve]
COc1ccc2c(c1)C1C=CCC1C(c1cc3c(cc1Br)OCO3)N2 (configuration not stated)	inactive
CC(O)CNc1nc2sc3c(c2c(=O)n1Cc1ccco1)CCCCC3 (configuration not stated)	inactive
C/C(=N\NC(=O)c1ccc(Cl)cc1)c1cccc(NC(=O)c2cccnc2)c1	inactive
COC(OC)c1ccnc(-c2ccc(OC(C)=O)cc2)n1	inconclusive [activator, single point]
CCCc1ccc(-c2ccc(F)c(N)c2)nc1	inconclusive [inhibitor, single point]
CC(C)c1ccc(/C=C2\SC(=O)N(CC(=O)NCCCn3ccnc3)C2=O)cc1	inconclusive [inhibitor, single point]
Cc1ccc(C)c(NC(=O)C2CC(=O)N(C3CCCCC3)C2)c1 (configuration not stated)	inactive
Cc1ccc(NC(=O)Cn2cc(C(F)(F)F)cc(Cl)c2=O)cc1Cl	inactive
CS(=O)(=O)N1CCN(C/C=C/c2ccccc2)CC1	inconclusive [inhibitor, single point]
Cc1ccc(NC(=O)CSc2nnc(-c3cc(C)[nH]n3)n2N)cc1	inconclusive [inhibitor, partial curve, poor fit]
O=C(CCCCCn1c(=S)[nH]c2cc3c(cc2c1=O)OCO3)N1CCN(C2CCCCC2)CC1	inconclusive [inhibitor, single point]
CC(NC(=S)NC1CCCCC1)C(c1ccccc1)N1CCOCC1 (configuration not stated)	inconclusive [inhibitor, partial curve]
O=C(/C=C/c1c(F)cccc1Cl)c1ccc(F)cc1	inconclusive [inhibitor, single point]
O=C1N=c2ccccc2=C1c1sc(Nc2cccc(O)c2)nc1O	inconclusive [inhibitor, single point]
C=CCn1c(-c2ccc(OC)c(OC)c2)cs/c1=N\c1ccccn1	inconclusive [inhibitor, single point]

SMILES	Potency
O=C(O)c1ccc2cc(-c3ccc(O)c(C45CC6CC(CC(C6)C4)C5)c3)ccc2c1	inconclusive [inhibitor, single point]
COc1ccc(/C=C2\SC(=S)N(CCCC(=O)Nc3ccccn3)C2=O)cc1OC	active: 5.01 µM
CS(=O)(=O)N(CC(=O)Nc1ccccc1Sc1ccccc1)c1ccc(F)cc1	inactive
CC(=O)N(c1ccc2oc(=O)sc2c1)S(=O)(=O)c1cccc2cccnc12	inactive
O=C(Cc1ccsc1)N1CCc2c([nH]c3ccccc23)C1c1ccccn1 (configuration not stated)	inconclusive [activator, single point]
CC1=NN(/C(=N\c2nnc(C)s2)Nc2ccccc2)[C@H](c2cccc3ccccc23)S1	inconclusive [inhibitor, single point]
CCc1ccc(NC(=S)NC(=O)c2c(-c3ccccc3Cl)noc2C)cc1	inconclusive [inhibitor, single point]
CCOc1ccc(N2CC(C(=O)Nc3ccc(OC)c(S(=O)(=O)N4CCCCC4)c3)CC2=O)cc1 (configuration not stated)	inactive
COc1ccc(Cl)cc1NC(=S)NCCc1c[nH]c2ccccc12	active: 7.08 µM
Oc1ccc(-c2nnc(-c3ccccc3)c(-c3ccccc3)n2)cc1	inconclusive [inhibitor, single point]
CCCn1nc2cc(C(=O)N(CC)c3ccc(OC)cc3)ccc2c1OCC	inactive
O=C(O)c1ccc(N/N=C/c2ccc(OC(=O)c3ccccc3Cl)cc2)cc1	active: 0.316 µM
CC(=O)O[C@H]1CC[C@H]2[C@@H]3CCc4cc(O)ccc4[C@H]3CC[C@]12C	inconclusive [inhibitor, single point]
CC(C)n1c(/C=C/c2ccccc2)nc2ccccc21	active: 15.8 µM
Cc1cc2ncn(/N=C/c3ccc(-c4ccccc4)o3)c2cc1C	active: 20 µM
CCn1c(/C=C/c2c[nH]c3ccccc23)nc2ccccc2c1=O	inconclusive [activator, partial curve]
Cc1cc(C)n(-c2nc3sc4c(c3c(=O)[nH]2)CCCC4)n1	active: 1.41 µM
O=C(Nc1nc(NC(=O)c2ccco2)n(-c2ccccc2)n1)c1ccccc1	active: 1.26 µM
CCOc1cc2[nH]c(=S)n(Cc3ccc(C(=O)NCCCN4CCOCC4)cc3)c(=O)c2cc1OCC	inconclusive [inhibitor, single point]
CCC(C)c1ccc(NC(=S)NC(C)C2CCCO2)cc1 (configuration not stated)	active: 17.8 µM
Cc1c(NC(=S)NC(=O)C2CCCCC2)c(=O)n(-c2ccccc2)n1C	inconclusive [activator, single point]
CCCCOc1ccc(-c2cnc3ccccc3n2)cc1	inconclusive [inhibitor, single point]
CC(=O)c1ccc(NC(=O)C(C)N(C)CC(=O)Nc2ccc(Cl)cc2)cc1 (configuration not stated)	inconclusive [inhibitor, single point]
O=c1c2cc3c(cc2[nH]c(=S)n1Cc1ccco1)OCO3	inconclusive [inhibitor, single point]
